Assay results taken from the RNAGym collection of RNA variant scans (doi:10.1073/pnas.2313332121).
Variants at the background level are over-represented here.

B1: TPR 5TU (parent)
chain: GGAUCUUCUCGAUCUAACAAAAAAGACAAAUCUGCCACAAAGCUUGAGAGCAUCUUCGGAUGCAGAGGCGGCAGCCUUCGGUGGCGCGAUAGCGCCAACGUUCUCAACUAUGACACGCAAAACGCGUGCUCCGUUGAAUGGAGUUUAUCAUG

Variants of: B1
Assay: polymerase ribozyme fitness, log enrichment relative to wild type (log ratio); higher = more active; in vitro selection for triplet polymerase activity
Summary of the method: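 Each subunit of a heterodimeric triplet polymerase ribozyme was represented by a PCR-built, transcribed mutant library that underwent triplicate single-round in vitro selection with frozen incubation at −7 °C. Extended constructs were recovered by gel excision, streptavidin-bead capture and RT-PCR, and Illumina sequencing of input and output libraries kept genotypes with ≥10 input reads and ≥1 read per output. Fitness is the logarithm of genotype enrichment relative to wild-type enrichment, from inverse-variance-weighted replicate averages, with a logarithm base of 2.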

Compared with GGAUCUUCUCGAGCUAACAAAAAAGACAAAUCUGCCACAAAGCUUGAGAGCAUCUUCGGAUGCAGAGGCGGCAGCCUUCGGUUGCGCGAUAGCGCCAACGUUCUUAACUAUGACACCCAAAACGCGUGCUCCGUUGAAUGGAGUUUAACAUG [U13G G83U C105U G117C U148A], GGAUCUUCUCGAGCUAACAAAAAAGACAAAUCUGCCACAAAGCUUGAGAGCAUCUUCGGAUGCAGAGGCGGCAGCCUUCGGUGGUGCGAUAGCGCCAACGUUCUCAACUAUGACACGCAAAACGCGUGCUCCGUUGAAUGGAGUUUAUCAUG [U13G C85U] is higher in “polymerase ribozyme fitness (log ratio)” value: no more than -4.2 for the first, -1.63 for the second.

GGAUCUUCUCGAGCUAACAAAAAAGACAAAUCUGCCACAAAGCUUGAUAGCAUCUUCGGAUGCAGAGGCGGCAGCCUUCGGUGGCGCGAUAGCGCAAACGUUCUCAACUGUGACACGAAAAACGCGUGCUCCGUUGAAUGGAGUUUAUCAUG [U13G G48U C96A A110G C118A] and GGAUCUUCUCGAGCUAACAAAAAAGACAAAUCUGCCACAACGCUUGAGAGCAUCGUCGGAUGCAGAGGCGGCAGCCUUCGGUGGCGCGAUAGCCCCAACGUUCUCAACUAUGACAAGCAAAACGCGUGCUCCGUUGAAUGGAUUUUAUCAGG [U13G A41C U55G G94C C116A G143U U151G] cannot be ordered by “polymerase ribozyme fitness (log ratio)” value: no more than -4.2 for the first, no more than -4.2 for the second.

GGAUCUUCUCGAGCUAACAAAAAAGACAAAUCUGCCUCAAAGCUUGAGAGCAUCUUCGGAUGCGGAGCCGGCAGCCUUCGGUGGCGCGAUAGCGCCGACGUUCUCAACUAUGACACGCAAAACGCGUGCUCCGUUUAAUGGAGUUUAUUAUG [U13G A37U A64G G68C A97G G136U C149U] and GGAUCUUCUCGAGCUAACAAAAAAGACAAAUCUGCCACAAAGCUUGAGAGCAUCUUCGGAUCCAGAGGCGGUAGCCUUCGGUGGCGCGAUAGCGCCAACGUUCUCAGCUAUGUCACGCAAAACGCGUGCUCCGUUGAAUGGAGUUUAUCAUG [U13G G62C C72U A107G A113U] cannot be ordered by “polymerase ribozyme fitness (log ratio)” value: no more than -4.2 for the first, no more than -4.2 for the second.

GGAUCUUCUCGAGCUAACAAAAAAGACAAAUCUGCUACAAAGCUUGAGAGCAUCUUCGGAUGCAGAGGCGGCAGCCUUCGGUGGCGCGAUAGCGCCAACGUUCUCAGCUAUGACACGCAAAACGCGUGCUCCGUUGAAUGGAGUCUAUCAUG [U13G C36U A107G U145C] and GGAUCUUCUCGAGCUAACAAAAAAGACAAAGCUGCCACAAAGCUUUAGAGCAUCUUCGGAUGCAGAGGCGGCAGCCUUCGGUGGCGCGAUAGCGUCAACGUUCUCAACUAUGACACGCAAAACGCGUACUCCGUUGAAUGGAGUUUAUCAUG [U13G U31G G46U C95U G128A] cannot be ordered by “polymerase ribozyme fitness (log ratio)” value: no more than -4.2 for the first, no more than -4.2 for the second.

Compared with GGAUCUUCUCGAGCUAACAAAAAAGACAAAUCUGCCACAAAGCUUGAGAGCGUCUUCGGAUGCAGAGGCGGCAGCCUUCGGUGGCGCGAUAGCGCCAACGUUCUCAACUAUGACACGCAAAACGCGUGCUCCGUUGAAUGGAGUUUAUCAUG [U13G A52G], GGAUCUUCUCGAGCUAACAAAAAAGACAAAUCUGCCACAAAGCUUGAGAGCAUCUUCGGAUGCAGAGGCGGCAGCCUUCGUUGGCACGAUAGCGCCAACGUUCUUAACUAUGACACGCAAAACGCGUGCUCCGUUGAAUGGAGUUUAUCAUG [U13G G81U G86A C105U] is lower in “polymerase ribozyme fitness (log ratio)” value: -1.06 for the first, -3.74 for the second.

GGAUCUUCUCGAGCUAACAAAAAAGACCAAUCUGCCACAAAGCUUGAGAGCAUCUUCGGGUGCAGAGGCGGCAGCCUUCGGUGUCGCGAUAGCGCCAACGUUCUCAACUAUGACACGCAAAACUCGUGCUCCAUUGAAUGGCGUUUAUCAUG [U13G A28C A60G G84U G124U G133A A142C] and GGAUCUUCUCGAGCUAACAAAAAAGACAAAUCUGCCACAAAGCUUACGAGCAUCUUCGGAUGCAGAGGCGGCAGCCUUCGGUGGCUCGAUAGCGCCAACGUUCUCAACUAUGACACGCAAAACGCGUGCUCCGUUGAAUGGAGUUUAUCAUG [U13G G46A A47C G86U] cannot be ordered by “polymerase ribozyme fitness (log ratio)” value: no more than -4.2 for the first, no more than -4.2 for the second.

GGAUCUUCUCGAGCUAACAAAAAAGACAAAUCUGCCACAAAGCUUGGGAGCAUCAUCGGAUGCAGAGGCGGCAGCCUUCGGUGGCGUGAUAGCGCUAACGUUCUCAACUAUGACACGCAAAACGCGUGCUCCGUUGAAGGGAGUUUAUCAUG [U13G A47G U55A C87U C96U U139G] and GGAUCUUCUCGAGCUAACAAAAAAGACAAAUCUGCCACAAAGCUUGAGAGCAUCUUCGGAUGUAGAGGCGGCAGCCUUCGGUGGCGCGAUAGCGCCAACGUUCGCUACUAUGACACGCAAAACGCGUGCUCCGUUGAAUGGAGUUUAUCAUG [U13G C63U U104G A106U] cannot be ordered by “polymerase ribozyme fitness (log ratio)” value: no more than -4.2 for the first, no more than -4.2 for the second.

GGAUCUUCUCGAGCUAACAAAAAAGACAAAUCUGCCACAAAGCAUGAGCGCAUCUUCGGAUGCAGAGGCGGCAGCCUUCGGUGGCGCCAUAGCGCCAACGUUCUCAACUAUGACAAGCAAAACGCGUGCUCCGUUGAAUGGAGUUUAUCAUG [U13G U44A A49C G88C C116A] and GGAUCUUCUCGAGCUAACAAAAAAGACAAAUCUGCUACAAAGCUUGUGAGCAUCUUCGGAUGCAGAGGCGGCAGCCUUCGGUGACGCGAUAGCGCCAACGUUCUCAACUAUGACACGCAAAGCGCGUGCUCCGUUGAUUGGAGUUUAUCAUG [U13G C36U A47U G84A A122G A138U] cannot be ordered by “polymerase ribozyme fitness (log ratio)” value: no more than -4.2 for the first, no more than -4.2 for the second.

GGAUCUUCUCGAGCUAACAAAAAAGACAUAUCUGCCACAAAGCUUGAGAGAAUCUUCGGAUGCAGAGGCGGCAGCCCUUGGUGGCGCGAUAUCGCCAAUGUUCUCAACUAUGACACGCAAAACGCGUGCUCCGUUGUAUGGAUUUUAUCAUG [U13G A29U C51A U77C C79U G92U C99U A137U G143U] and GGAUCUUCUCGAGCUAACAAAAAAGACAAAUCUGCCACAAAGCUUGAGAGCAUCUUCGGAUGCAGAGGCGGCAGCCUUCGGUGGCGCGUUAGCGUCAAGGUUCUCAACUAUGACACGCAAAACGCGUGCUCCGUUGAAUGGAGUUUAUUAUG [U13G A89U C95U C99G C149U] cannot be ordered by “polymerase ribozyme fitness (log ratio)” value: no more than -4.2 for the first, no more than -4.2 for the second.

For GGAUCUUCUCGAGCUAACAAAAAAGACAAAUCUGCCACAAAGCUUGAGAGCAUCUUCGGAUGCAGAGCCGGCAGCCUUCGGUGACGCGAUAGCGCCAACGUUCUCAACUAUGACACGCAAAACGCGUGCUCCGUUGAAUGGAGUUUAUCAUG [U13G G68C G84A], the “polymerase ribozyme fitness (log ratio)” value was no more than -4.2.
